In all, about 16,000 sequences were measured (“Z-score”: median about -0.37, highest 2% from about 3.1 on). The list shows a part of the results.
Each sequence was assayed on RBM10 RRM1-ZnF-RRM2 (GST-tagged construct) (assay: RNAcompete 7-mer binding Z-score; higher = stronger binding preference).
How it was run: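 In 1 ml Hepes pH 7.8 buffer with KCl, NaCl, glycerol, DTT, BSA and glutathione Sepharose beads, GST-tagged RBM10 constructs (20 pmol) were incubated for 30 min at 4°C with 1.5 nmol of a designed pool of 241 399 RNAs up to 41 nt. Four 2-min washes at 4°C followed, and bound RNA was detected by microarray hybridisation. Heptamer motif enrichment was expressed as a one-sided Z-score across probes containing each motif.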

First: UAGCGAA
Second: CAGCGCU
The “RNAcompete 7-mer binding Z-score” value of the first is higher: 0.137 for the first, -0.22 for the second.

Compared with AUUAGGA, CACCUCC is lower in “RNAcompete 7-mer binding Z-score” value: 2.05 for the first, -0.657 for the second.

Compared with UCACUCC, AAUAUCA is higher in “RNAcompete 7-mer binding Z-score” value: -0.766 for the first, -0.322 for the second.

First: UCGGGAU
Second: CAAAUUU
The “RNAcompete 7-mer binding Z-score” value of the first is higher: 1.08 for the first, -0.708 for the second.

First: ACUAUGC
Second: GGGCGAU
The “RNAcompete 7-mer binding Z-score” value of the first is lower: -0.683 for the first, 1.75 for the second.

Going from CGUUCCA to CAAUAAA, the “RNAcompete 7-mer binding Z-score” value rises from -0.73 to -0.497.

Going from CUUACAU to AGCCCCU, the “RNAcompete 7-mer binding Z-score” value rises from -0.843 to -0.646.

First: ACUUGUU
Second: UCAAGGC
The “RNAcompete 7-mer binding Z-score” value of the first is lower: -0.919 for the first, 0.202 for the second.

Going from GAAGUCU to UCCUGGC, the “RNAcompete 7-mer binding Z-score” value falls from -0.588 to -0.752.

Compared with CAGAGGG, CAGAUGU is lower in “RNAcompete 7-mer binding Z-score” value: 2.33 for the first, -0.0452 for the second.

Going from CGGUGGA to CUUUUGG, the “RNAcompete 7-mer binding Z-score” value falls from 2.27 to -0.482.

First: AUAACCG
Second: GGCCGAA
The “RNAcompete 7-mer binding Z-score” value of the first is lower: -0.653 for the first, -0.136 for the second.

Compared with UCUAUUU, ACGGGCA is higher in “RNAcompete 7-mer binding Z-score” value: -0.81 for the first, 1.87 for the second.

First: GUCGAUU
Second: AACACGG
The “RNAcompete 7-mer binding Z-score” value of the first is lower: -0.271 for the first, 0.654 for the second.

Compared with CGUGUAG, CCUUUGU is lower in “RNAcompete 7-mer binding Z-score” value: 0.61 for the first, -0.887 for the second.

Going from UCCGGUG to GCGCCCC, the “RNAcompete 7-mer binding Z-score” value falls from 0.0896 to -0.369.

Compared with GACUUAC, CUGCCAU is lower in “RNAcompete 7-mer binding Z-score” value: -0.81 for the first, -0.923 for the second.

Going from AUGUAUC to CGAUUUA, the “RNAcompete 7-mer binding Z-score” value falls from -0.468 to -0.704.

First: GGCGUAC
Second: UAGAGUA
The “RNAcompete 7-mer binding Z-score” value of the first is lower: 0.607 for the first, 0.621 for the second.

First: CACCUGA
Second: UGUGAUU
The “RNAcompete 7-mer binding Z-score” value of the first is lower: -0.799 for the first, -0.544 for the second.

Going from ACCCGUG to AUGGUCU, the “RNAcompete 7-mer binding Z-score” value rises from -0.588 to -0.369.

Going from GGGGGGU to UCCUCUA, the “RNAcompete 7-mer binding Z-score” value falls from 3.13 to -0.836.

First: GAUCAGU
Second: CUGGCUC
The “RNAcompete 7-mer binding Z-score” value of the first is higher: 0.246 for the first, -0.726 for the second.

Compared with GGCCUCU, UGCUGGC is higher in “RNAcompete 7-mer binding Z-score” value: -0.799 for the first, -0.0707 for the second.

First: GUUCAGA
Second: AAUCGGC
The “RNAcompete 7-mer binding Z-score” value of the first is higher: -0.0853 for the first, -0.216 for the second.

First: ACUCCCA
Second: GACUCGU
The “RNAcompete 7-mer binding Z-score” value of the first is lower: -0.996 for the first, -0.653 for the second.

First: GCGGGGU
Second: GGACACC
The “RNAcompete 7-mer binding Z-score” value of the first is higher: 3.77 for the first, 0.665 for the second.

Going from UCAUAGC to ACCUGAA, the “RNAcompete 7-mer binding Z-score” value falls from -0.73 to -0.785.

First: CAAAAGU
Second: GGUGCGC
The “RNAcompete 7-mer binding Z-score” value of the first is lower: -0.333 for the first, 1.5 for the second.

First: CCUGGUC
Second: UCAAAUC
The “RNAcompete 7-mer binding Z-score” value of the first is higher: -0.621 for the first, -0.741 for the second.

First: UUUACGG
Second: AUAUGGC
The “RNAcompete 7-mer binding Z-score” value of the first is lower: -0.282 for the first, 0.428 for the second.

First: GCAAACA
Second: UCGGACU
The “RNAcompete 7-mer binding Z-score” value of the first is higher: 0.192 for the first, -0.406 for the second.

Compared with AGGCGGG, AAUCCAC is lower in “RNAcompete 7-mer binding Z-score” value: 2.73 for the first, -0.551 for the second.

First: GACACCU
Second: CUCAUGU
The “RNAcompete 7-mer binding Z-score” value of the first is lower: -0.868 for the first, -0.77 for the second.

First: AACCUUU
Second: CUGGUUA
The “RNAcompete 7-mer binding Z-score” value of the first is lower: -0.861 for the first, -0.165 for the second.

Going from AUAACCC to CCCUACG, the “RNAcompete 7-mer binding Z-score” value falls from -0.599 to -0.712.

Going from AAAACUA to GUUGCGA, the “RNAcompete 7-mer binding Z-score” value rises from -0.34 to 0.224.

First: GCCGAUC
Second: UGUCCCA
The “RNAcompete 7-mer binding Z-score” value of the first is lower: -0.744 for the first, -0.515 for the second.

First: GAUUAGA
Second: UGGGAUU
The “RNAcompete 7-mer binding Z-score” value of the first is lower: 0.257 for the first, 1.63 for the second.

First: CGGGAAG
Second: GCCAGGA
The “RNAcompete 7-mer binding Z-score” value of the first is higher: 2.07 for the first, 0.625 for the second.

Going from CCAGUUA to CACCGAA, the “RNAcompete 7-mer binding Z-score” value rises from -0.683 to -0.595.

First: UUGGCUU
Second: AGCGGCA
The “RNAcompete 7-mer binding Z-score” value of the first is lower: -0.606 for the first, 1 for the second.

Compared with CGUACAC, GGGAUAG is higher in “RNAcompete 7-mer binding Z-score” value: -0.482 for the first, 3.83 for the second.

Compared with GCUAAUA, UUCGUAC is lower in “RNAcompete 7-mer binding Z-score” value: -0.282 for the first, -0.5 for the second.

First: ACCCUGC
Second: AACAUCU
The “RNAcompete 7-mer binding Z-score” value of the first is lower: -0.927 for the first, -0.748 for the second.

First: AAGUCGG
Second: UUCCUGG
The “RNAcompete 7-mer binding Z-score” value of the first is higher: 0.796 for the first, -0.515 for the second.

First: GGAGUCU
Second: AGCAACG
The “RNAcompete 7-mer binding Z-score” value of the first is higher: 0.388 for the first, 0.359 for the second.

Compared with ACACCCU, UGUCUGG is higher in “RNAcompete 7-mer binding Z-score” value: -0.941 for the first, -0.0853 for the second.

Going from CUCCUCU to CCAUAUA, the “RNAcompete 7-mer binding Z-score” value rises from -0.704 to -0.632.

First: ACAGACC
Second: UUGAUGU
The “RNAcompete 7-mer binding Z-score” value of the first is lower: -0.635 for the first, -0.347 for the second.

First: CCAUUAC
Second: UUGUGCC
The “RNAcompete 7-mer binding Z-score” value of the first is lower: -0.715 for the first, -0.628 for the second.

First: GACUUAG
Second: UUACGAU
The “RNAcompete 7-mer binding Z-score” value of the first is higher: -0.267 for the first, -0.439 for the second.

First: UGUCGAG
Second: GAGAAAA
The “RNAcompete 7-mer binding Z-score” value of the first is lower: 0.024 for the first, 0.519 for the second.

Going from CCUUUGG to CUGCACU, the “RNAcompete 7-mer binding Z-score” value falls from -0.592 to -0.672.

Going from GAAUGCG to CGCAGCU, the “RNAcompete 7-mer binding Z-score” value falls from 0.545 to -0.61.

Going from UUCGCUG to UACUAAA, the “RNAcompete 7-mer binding Z-score” value rises from -0.799 to -0.599.

Compared with GUCUGCC, GUUAAUG is higher in “RNAcompete 7-mer binding Z-score” value: -0.646 for the first, 0.636 for the second.

First: AGCAGUC
Second: GAUAUAC
The “RNAcompete 7-mer binding Z-score” value of the first is higher: -0.169 for the first, -0.202 for the second.

With UUUAUCG the “RNAcompete 7-mer binding Z-score” value was -0.668.
